Test results as given in the supplement of paper PMC12217912.
This is one part of the list. Sequences were assembled here from the parent chain. Values near 0.05 are background.

B1: TEV protease; numbered along this chain (parent)
chain: MGESLFKGPRDYNPISSSICHLTNESDGHTTSLYGIGFGPFIITNKHLFRRNNGTLVVQSLHGVFKVKDTTTLQQHLVDGRDMIIIRMPKDFPPFPQKLKFREPQREERICLVTTNFQTKSMSSMVSDTSCTFPSGDGIFWKHWIQTKDGQCGSPLVSTRDGFIVGIHSASNFTNTNNYFTSVPKNFMELLTNQEAQQWVSGWRLNADSVLWGGHKVFMVKPEEPFQPVKEATQL

Variants of: B1
Assay: raw area under fraction-flipped curve 0-4 h after induction (AUC4h, not background-subtracted), DNA-recorder readout of cleavage of the substrate (dimensionless); higher = more cleavage of the substrate by the protease variant
Conditions: temperature: 34 °C; time window: 0-4 h after rhamnose induction
Procedure: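 In vivo DNA recorder in E. coli TOP10(DE3) ΔrhaA at 34 °C. Each TEVp single-site mutant (parent TEVp 0) is paired with a single-site variant of the 7-mer TEVs (canonical ENLYFQ|S). The substrate sits between flexible linkers in a Bxb1-sfGFP-TEVs-SsrA fusion, so cleavage stabilises Bxb1 and speeds flipping of a recombination array, read by NGS. The value is the raw area under the fraction-flipped curve over 0-4 h after rhamnose induction (AUC4h), with ≥20 reads per time point. It is not background-subtracted; inactive controls average about 0.047.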
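Also: Bxb1 expression induced with 0.2% (w/v) L-rhamnose at OD600 near 0.5, cultures sampled hourly, flipped fraction per protease–substrate barcode pair counted by paired-end Illumina sequencing.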

| Variant | area with substrate ENLYFQA | area with substrate ENLYFQC | area with substrate ENLYFQD | area with substrate ENLYFQF | area with substrate ENLYFQG | area with substrate ENLYFQH | area with substrate ENLYFQI | area with substrate ENLYFQL | area with substrate ENLYFQM | area with substrate ENLYFQN | area with substrate ENLYFQP | area with substrate ENLYFQQ | area with substrate ENLYFQR | area with substrate ENLYFQS | area with substrate ENLYFQT | area with substrate ENLYFQV | area with substrate ENLYFQW | area with substrate ENLYFQY | area with substrate ENLYFQK | area with substrate ENLYFQE |
| --- | --- | --- | --- | --- | --- | --- | --- | --- | --- | --- | --- | --- | --- | --- | --- | --- | --- | --- | --- | --- |
| T192R | 0.0934 | 0.113 | 0.0624 | 0.101 | 0.0865 | 0.0544 | 0.0557 | 0.0586 | 0.085 | 0.0744 | 0.063 | 0.0867 | 0.063 | 0.0856 | 0.0647 | 0.0637 | 0.0532 | 0.0584 | – | – |
| T174A | 0.0772 | 0.11 | – | – | – | – | 0.0838 | 0.0445 | – | 0.0766 | – | – | – | 0.0993 | – | – | – | – | 0.0999 | – |
| W144D | – | 0.0776 | 0.0621 | – | – | – | 0.0347 | 0.0586 | 0.078 | 0.0735 | – | – | 0.055 | 0.0815 | – | 0.0617 | 0.0585 | – | – | 0.0396 |
| W144A | 0.0797 | 0.0914 | 0.0853 | 0.0559 | – | 0.0699 | 0.0384 | 0.0604 | 0.0721 | – | – | 0.0596 | 0.0619 | 0.0855 | 0.0746 | 0.0686 | – | 0.0675 | 0.0748 | – |
| G202F | – | 0.06 | 0.0581 | – | 0.0571 | – | 0.0625 | 0.0834 | – | 0.0628 | – | – | 0.0616 | 0.0625 | 0.0628 | 0.0616 | 0.0432 | – | 0.0561 | 0.0579 |
| T72E | – | 0.1 | – | – | 0.0667 | – | 0.0509 | 0.0616 | – | 0.0631 | – | – | 0.0827 | 0.0951 | 0.0623 | – | – | – | 0.0678 | – |
| R160M | – | 0.116 | – | – | – | – | – | 0.0761 | – | – | – | – | – | 0.102 | – | – | – | – | – | – |
| G35R | – | 0.0453 | – | – | – | – | 0.0496 | – | – | – | – | – | 0.0532 | 0.043 | 0.0533 | – | 0.0474 | – | – | – |
| T23G | 0.0565 | 0.0697 | 0.0812 | 0.0704 | 0.0899 | 0.0679 | 0.0667 | 0.0567 | 0.0671 | 0.0757 | – | 0.0618 | 0.0493 | 0.0782 | 0.0562 | 0.058 | 0.0598 | 0.0647 | 0.0607 | – |
| T23W | 0.0894 | 0.0909 | – | 0.0705 | 0.0823 | 0.0755 | 0.0645 | 0.0635 | 0.072 | 0.0748 | 0.0567 | 0.0413 | 0.0606 | 0.0911 | 0.067 | 0.0648 | 0.0651 | 0.0796 | 0.0634 | – |
| G136F | 0.0933 | 0.116 | 0.0746 | – | 0.0998 | 0.105 | – | 0.0602 | 0.0815 | 0.0811 | 0.0535 | – | 0.0899 | 0.104 | 0.06 | 0.0604 | 0.0621 | 0.0841 | 0.0556 | – |
| P228F | – | 0.0395 | 0.073 | – | – | 0.077 | – | – | – | 0.067 | 0.0688 | – | – | 0.0933 | 0.0736 | 0.0743 | – | – | 0.052 | – |
| T31Q | – | 0.0796 | – | 0.0598 | 0.0795 | – | 0.051 | 0.0606 | 0.0851 | – | – | – | 0.0551 | 0.101 | – | – | – | – | – | – |
| Y12A | – | 0.134 | 0.0655 | – | 0.0847 | 0.0732 | 0.0821 | 0.0639 | 0.0795 | – | 0.0625 | 0.0931 | 0.0505 | 0.105 | 0.058 | 0.0578 | – | – | 0.0627 | – |
| V220Q | 0.119 | 0.112 | 0.0838 | – | 0.102 | 0.0588 | 0.0654 | 0.0696 | – | 0.09 | 0.0622 | 0.0681 | 0.0691 | 0.111 | 0.0712 | 0.0654 | 0.0727 | 0.0936 | 0.0573 | – |
| I145T | 0.102 | 0.118 | – | 0.0781 | 0.112 | 0.0877 | 0.0657 | 0.0682 | 0.0941 | 0.0709 | 0.0558 | – | 0.0502 | 0.11 | 0.0677 | 0.0594 | 0.0588 | 0.0795 | 0.0644 | – |
| F226D | 0.11 | – | – | – | 0.104 | – | – | 0.0616 | 0.148 | 0.0566 | – | – | – | 0.113 | 0.0759 | – | 0.101 | – | 0.0743 | – |
| H168S | – | 0.0569 | – | – | 0.0934 | – | 0.0567 | 0.0653 | – | 0.0553 | – | – | 0.07 | 0.0616 | 0.021 | – | – | – | – | – |
| W212V | 0.103 | 0.132 | 0.0387 | 0.0787 | 0.115 | – | – | 0.0564 | – | 0.0103 | – | 0.0805 | 0.064 | 0.118 | 0.0708 | 0.058 | 0.0581 | – | – | 0.0529 |
| D208T | 0.0813 | 0.0752 | 0.0657 | 0.0618 | 0.0849 | – | 0.0636 | 0.0579 | 0.0605 | 0.0701 | 0.0605 | 0.0736 | 0.0806 | 0.0785 | 0.0614 | – | 0.0694 | – | 0.0568 | 0.0612 |
| M83F | 0.0737 | 0.0881 | – | – | 0.0777 | – | – | 0.0691 | – | 0.0746 | 0.0643 | 0.0757 | – | 0.0797 | – | – | – | 0.056 | 0.0511 | – |
| M219F | 0.112 | 0.12 | – | – | 0.151 | 0.082 | 0.0534 | 0.0549 | 0.123 | 0.11 | – | – | – | 0.117 | 0.0778 | – | – | – | – | 0.1 |
| L56G | 0.0522 | – | 0.0558 | – | – | – | 0.0455 | 0.0409 | 0.0511 | 0.0502 | 0.0487 | – | 0.0458 | 0.0523 | 0.0375 | 0.0573 | 0.0427 | 0.0505 | 0.0479 | – |
| Q194G | 0.0917 | 0.127 | 0.0791 | 0.0887 | 0.0984 | 0.0643 | 0.0545 | 0.048 | 0.124 | 0.0815 | 0.0542 | – | 0.0633 | 0.103 | – | 0.0624 | 0.0669 | – | 0.0348 | 0.0639 |
| Y179M | 0.0469 | – | – | 0.0398 | 0.0795 | – | 0.0672 | 0.0566 | – | – | 0.0538 | – | 0.0562 | 0.0647 | – | 0.0489 | 0.0596 | – | 0.0749 | – |
| G63W | 0.112 | 0.0981 | 0.0649 | 0.0732 | 0.0771 | – | 0.0875 | 0.0648 | 0.0847 | 0.0497 | 0.0751 | 0.0967 | 0.0597 | 0.0924 | 0.0495 | 0.0508 | 0.0557 | 0.0796 | 0.0596 | – |
| T159C | – | 0.16 | – | 0.0907 | 0.105 | – | – | – | – | 0.0699 | – | – | – | 0.11 | – | 0.0608 | 0.0745 | – | – | – |
| K216N | – | 0.108 | – | – | 0.0886 | – | 0.0769 | 0.0646 | – | 0.0937 | 0.0514 | – | 0.0694 | 0.103 | 0.0722 | 0.0792 | 0.0698 | 0.0912 | – | – |
